Measurements published in patent US9255256B2, “Expression of functional cytochorome P450 monooxygenase system in enterobacteria” (priority 1996, dated 2016).

Tested on: CYP3A4
Test: Testosterone 6β-hydroxylase assay, bacterial membrane fractions
Assay type: biochemical, human
Conditions: 30 mM MgCl2, co-expressed with reductase, two plasmid system

B1: 17α-CYP3A4: CYP3A4 with N-terminal region modified according to published procedures (Gillam et al 1993) (protein)
chain: MALIPDLAMETWLLLAVSLVLLYLYGTHSHGLFKKLGIPGPTPLPFLGNILSYHKGFCMFDMECHKKYGKVWGFYDGQQPVLAITDPDMIKTVLVKECYSVFTNRRPFGPVGFMKSAISIAEDEEWKRLRSLLSPTFTSGKLKEMVPIIAQYGDVLVRNLRREAETGKPVTLKDVFGAYSMDVITSTSFGVNIDSLNNPQDPFVENTKKLLRFDFLDPFFLSITVFPFLIPILEVLNICVFPREVTNFLRKSVKRMKESRLEDTQKHRVDFLQLMIDSQNSKETESHKALSDLELVAQSIIFIFAGYETTSSVLSFIMYELATHPDVQQKLQEEIDAVLPNKAPPTYDTVLQMEYLDMVVNETLRLFPIAMRLERVCKKDVEINGMFIPKGVVVMIPSYALHRDPKYWTEPEKFLPERFSKKNKDNIDPYIYTPFGSGPRNCIGMRFALMNMKLALIRVLQNFSFKPCKETQIPLKLSLGGLLQPEKPVVLKVESRDGTVSGA
  Testosterone 6β-hydroxylase: 4.9 ± 0.3 nmol formed per minute per nmol CYP3A4
